In the supplement of paper PMC8728848:
The list shows a part of the results.

Assays:
Assay in all cases: glycan array binding signal (z-score within array); higher = stronger binding
Settings in all cases: glycan notation: IUPAC condensed, linker removed
GlcNAc(b1-3)GalNAc = target: GlcNAc(b1-3)GalNAc
In short: (§1)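 Glycan array data were curated from 3228 arrays in the Consortium for Functional Glycomics database and kept only where the protein sequence was available. Glycan names were converted to IUPAC-condensed notation, and columns mapping to the same glycan were averaged. The binding signal is a within-array Z-score, averaged across arrays of the same protein sequence at different concentrations or buffers and across linkers. Negative Z-scores can be read as non-binding.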

[1] = target: GlcNAc(b1-3)[GlcNAc(b1-4)][GlcNAc(b1-6)]GlcNAc
In short: as §1

[2] = target: GlcNAc(b1-3)[GlcNAc(b1-6)]Gal(b1-4)GlcNAc
In short: as §1

[3] = target: GlcNAc(b1-3)[GlcNAc(b1-6)]GlcNAc
In short: as §1

[4] = target: GlcNAc(b1-4)Gal(b1-4)GlcNAc
In short: as §1

[5] = target: GlcNAc(b1-4)GlcNAc(b1-4)GlcNAc
In short: as §1

[6] = target: GlcNAc(b1-4)GlcNAc(b1-4)GlcNAc(b1-4)GlcNAc(b1-4)GlcNAc
In short: as §1

[7] = target: GlcNAc(b1-4)GlcNAc(b1-4)GlcNAc(b1-4)GlcNAc(b1-4)GlcNAc(b1-4)GlcNAc
In short: as §1

[8] = target: GlcNAc(b1-4)[GlcNAc(b1-6)]GalNAc
In short: as §1

[9] = target: GlcNAc(b1-6)Gal(b1-4)GlcNAc
In short: as §1

GlcNAc(b1-6)GalNAc = target: GlcNAc(b1-6)GalNAc
In short: as §1

Kdn(a2-3)Gal(b1-3)GlcNAc = target: Kdn(a2-3)Gal(b1-3)GlcNAc
In short: as §1

Kdn(a2-3)Gal(b1-4)GlcNAc = target: Kdn(a2-3)Gal(b1-4)GlcNAc
In short: as §1

[10] = target: Man(a1-2)Man(a1-2)Man(a1-3)Man
In short: as §1

[11] = target: Man(a1-2)Man(a1-2)Man(a1-3)[Man(a1-2)Man(a1-3)[Man(a1-2)Man(a1-6)]Man(a1-6)]Man(b1-4)GlcNAc(b1-4)GlcNAc
In short: as §1

[12] = target: Man(a1-2)Man(a1-2)Man(a1-3)[Man(a1-2)Man(a1-6)[Man(a1-3)]Man(a1-6)]Man(b1-4)GlcNAc(b1-4)GlcNAc
In short: as §1

[13] = target: Man(a1-2)Man(a1-2)Man(a1-6)[Man(a1-3)]Man
In short: as §1

Man(a1-2)Man(a1-3)Man = target: Man(a1-2)Man(a1-3)Man
In short: as §1

[14] = target: Man(a1-2)Man(a1-3)[Man(a1-2)Man(a1-6)]Man
In short: as §1

[15] = target: Man(a1-2)Man(a1-3)[Man(a1-3)[Man(a1-6)]Man(a1-6)]Man(b1-4)GlcNAc(b1-4)GlcNAc
In short: as §1

[16] = target: Man(a1-2)Man(a1-3)[Man(a1-6)]Man(a1-6)[Man(a1-2)Man(a1-3)]Man(b1-4)GlcNAc(b1-4)GlcNAc
In short: as §1

Man(a1-3)[Man(a1-6)]Man = target: Man(a1-3)[Man(a1-6)]Man
In short: as §1

[17] = target: Man(a1-3)[Man(a1-6)]Man(a1-6)[Man(a1-3)]Man(b1-4)GlcNAc(b1-4)GlcNAc
In short: as §1

[18] = target: Man(a1-3)[Man(a1-6)]Man(b1-4)GlcNAc(b1-4)GlcNAc
In short: as §1

Man(b1-4)GlcNAc = target: Man(b1-4)GlcNAc
In short: as §1

Neu5Ac(a2-3)Gal = target: Neu5Ac(a2-3)Gal
In short: as §1

[19] = target: Neu5Ac(a2-3)Gal(b1-3)GalNAc
In short: as §1

[20] = target: Neu5Ac(a2-3)Gal(b1-3)GalNAc(b1-3)Gal(a1-4)Gal(b1-4)Glc
In short: as §1

[21] = target: Neu5Ac(a2-3)Gal(b1-3)GalNAc(b1-4)[Neu5Ac(a2-3)]Gal(b1-4)Glc
In short: as §1

[22] = target: Neu5Ac(a2-3)Gal(b1-3)GalNAc6S
In short: as §1

[23] = target: Neu5Ac(a2-3)Gal(b1-3)GlcNAc
In short: as §1

[24] = target: Neu5Ac(a2-3)Gal(b1-3)GlcNAc(b1-3)Gal(b1-4)GlcNAc
In short: as §1

[25] = target: Neu5Ac(a2-3)Gal(b1-3)GlcNAc6S
In short: as §1

[26] = target: Neu5Ac(a2-3)Gal(b1-3)[Fuc(a1-4)]GlcNAc
In short: as §1

[27] = target: Neu5Ac(a2-3)Gal(b1-3)[Fuc(a1-4)]GlcNAc(b1-3)Gal(b1-4)[Fuc(a1-3)]GlcNAc
In short: as §1

[28] = target: Neu5Ac(a2-3)Gal(b1-3)[Neu5Ac(a2-3)Gal(b1-4)]GlcNAc
In short: as §1

[29] = target: Neu5Ac(a2-3)Gal(b1-3)[Neu5Ac(a2-6)]GalNAc
In short: as §1

Neu5Ac(a2-3)Gal(b1-4)Glc = target: Neu5Ac(a2-3)Gal(b1-4)Glc
In short: as §1

B1: EcCDA (Encephalitazoon cuniculi), Q8SU65 (protein)
chain: MLLCLLYFTSSWCSGSDVPDVCTNSGMIAINFVDGPVRGVTDRILNTLDELGVKATFSFTVNQKAVGNVGQLYRRAVEEGHNVALRVDPSMDEGYQCLSQDALENNVDREIDTIDGLSGTEIRYAAVPICNGQVNSEMYNILTERGVLPVGYTFCPYDYDDPVGEFESMIEGSDPKHHSFIILMHDGQEADTSRLENMVKIGKDKGYRFVNMDECLQGYKGAPGDPELSLRGKGVESIGKGFLPFFLMMLVRLL
glycan array binding signal (z-score) (GlcNAc(b1-3)GalNAc): -0.163
glycan array binding signal (z-score) [1]: -0.197
glycan array binding signal (z-score) [2]: -0.236
glycan array binding signal (z-score) [3]: -0.011
glycan array binding signal (z-score) [4]: 1.2
glycan array binding signal (z-score) [5]: -0.023
glycan array binding signal (z-score) [6]: -0.33
glycan array binding signal (z-score) [7]: -0.405
glycan array binding signal (z-score) [8]: -0.36
glycan array binding signal (z-score) [9]: -0.261
glycan array binding signal (z-score) (GlcNAc(b1-6)GalNAc): -0.364
glycan array binding signal (z-score) (Kdn(a2-3)Gal(b1-3)GlcNAc): -0.375
glycan array binding signal (z-score) (Kdn(a2-3)Gal(b1-4)GlcNAc): -0.366
glycan array binding signal (z-score) [10]: -0.199
glycan array binding signal (z-score) [11]: -0.442
glycan array binding signal (z-score) [12]: -0.317
glycan array binding signal (z-score) [13]: -0.434
glycan array binding signal (z-score) (Man(a1-2)Man(a1-3)Man): 0.039
glycan array binding signal (z-score) [14]: -0.257
glycan array binding signal (z-score) [15]: -0.2
glycan array binding signal (z-score) [16]: 0.183
glycan array binding signal (z-score) (Man(a1-3)[Man(a1-6)]Man): -0.395
glycan array binding signal (z-score) [17]: -0.34
glycan array binding signal (z-score) [18]: -0.243
glycan array binding signal (z-score) (Man(b1-4)GlcNAc): -0.374
glycan array binding signal (z-score) (Neu5Ac(a2-3)Gal): 0.077
glycan array binding signal (z-score) [19]: -0.31
glycan array binding signal (z-score) [20]: -0.476
glycan array binding signal (z-score) [21]: 0.074
glycan array binding signal (z-score) [22]: -0.267
glycan array binding signal (z-score) [23]: -0.425
glycan array binding signal (z-score) [24]: -0.306
glycan array binding signal (z-score) [25]: 0.018
glycan array binding signal (z-score) [26]: -0.456
glycan array binding signal (z-score) [27]: -0.421
glycan array binding signal (z-score) [28]: -0.182
glycan array binding signal (z-score) [29]: -0.318
glycan array binding signal (z-score) (Neu5Ac(a2-3)Gal(b1-4)Glc): -0.322
